Data as given in a compilation of properties of binary mixtures (doi:10.1016/j.jct.2019.105906).
The densities may have been worked out from excess volumes.

Assay: xn = mol fraction of the nth substance listed
Details: 100 kPa

CCOC(C)=O + CCCC[n+]1ccn(C)c1.F[P-](F)(F)(F)(F)F
x2 = 0
Details | mass density [kg/m3]
303.15 K | 888.6
308.15 K | 882.4
313.15 K | 876.2
318.15 K | 870
323.15 K | 863.8

CCCC[n+]1ccn(C)c1.F[P-](F)(F)(F)(F)F + CCOC(C)=O
mass density [kg/m3]
Details | x1 = 0.1012 | x1 = 0.1992 | x1 = 0.312 | x1 = 0.3985 | x1 = 0.5056 | x1 = 0.5996 | x1 = 0.7054 | x1 = 0.7963 | x1 = 0.9185 | x1 = 1
298.15 K | 996.2 | 1073.5 | 1143.7 | 1187.6 | 1233.1 | – | 1298.7 | 1322.4 | 1350.2 | 1367.2
303.15 K | 990.5 | 1068 | 1138.5 | – | – | – | 1294.5 | 1318.1 | – | 1363
308.15 K | 984.9 | 1062.5 | – | – | – | 1258 | 1290.3 | – | 1341.5 | 1358.7
313.15 K | 978.9 | – | 1128.3 | 1173 | 1219.5 | 1253.7 | 1286.1 | 1309.7 | – | –
318.15 K | 973.1 | – | 1123.1 | 1168.2 | – | 1249.4 | 1281.9 | – | – | –
323.15 K | 967.5 | 1046.1 | 1118 | 1163.3 | – | 1245.1 | 1277.7 | 1301.2 | 1328.5 | 1346
